Assay results published in patent US20200131269A1 (STCUBE, published 2020).

Experiments:
BTLA-His [1] = target: T1, BTLA-His (human, UniProt Q7Z6A9 31-157, limits assumed); test: BLI (Octet RED96), BTN1A1-Fc on anti-hIgG Fc capture tips, BTLA-His at 6.4 µM
T1 construct: That entry includes signal peptide, TM and cytoplasmic parts that a soluble protein would lack; also called soluble BTLA; not shown: His tag
T1 sequence: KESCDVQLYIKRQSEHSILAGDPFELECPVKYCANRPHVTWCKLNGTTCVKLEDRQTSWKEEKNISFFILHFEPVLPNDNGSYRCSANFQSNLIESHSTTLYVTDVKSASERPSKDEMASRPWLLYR

BTLA-His [2] = target: T1, BTLA-His; test: BLI (Octet RED96), BTN1A1-Fc on anti-hIgG Fc capture tips, BTLA-His at 0.8 µM
BTLA-His [3] = target: T1, BTLA-His; test: BLI (Octet RED96), BTN1A1-Fc on anti-hIgG Fc capture tips, BTLA-His at 3.2 µM
BTLA-His [4] = target: T1, BTLA-His; test: BLI (Octet RED96), BTN1A1-Fc on anti-hIgG Fc capture tips, BTLA-His at 1.6 µM

Kd (BTLA-His [1]): 843 nM
koff (BTLA-His [1]): 0.000778 s⁻¹
kon (BTLA-His [1]): 923 M⁻¹ s⁻¹
Kd (BTLA-His [2]): 9530 nM
koff (BTLA-His [2]): 0.000761 s⁻¹
Kd (BTLA-His [3]): 579 nM
koff (BTLA-His [3]): 0.000728 s⁻¹
kon (BTLA-His [3]): 1260 M⁻¹ s⁻¹
Kd (BTLA-His [4]): 724 nM
koff (BTLA-His [4]): 0.00119 s⁻¹
kon (BTLA-His [4]): 1650 M⁻¹ s⁻¹
B1: BTN1A1-ECD-Fc (Fc fusion)
chain: APFDVIGPPEPILAVVGEDAELPCRLSPNASAEHLELRWFRKKVSPAVLVHRDGREQEAEQMPEYRGRATLVQDGIAKGRVALRIRGVRVSDDGEYTCFFREDGSYEEALVHLKVAALGSDPHISMQVQENGEICLECTSVGWYPEPQVQWRTSKGEKFPSTSESRNPDEEGLFTVAASVIIRDTSAKNVSCYIQNLLLGQEKKVEISIPASSLPR[sequence of human IgG1 Fc omitted]
modifications: glycosylated (so in the source); sites not stated for this construct
notes: The entry already holds the Fc; also called BTN1A1-Fc; glycosylated wild-type BTN1A1-Fc
